Experimental data as given in US20110319597A1 (CAPHALON AUSTRALIA, published 2011).
Values belong to the binder of their own block, whether it stands above or below them.

Biological target: T1, recombinant human TNFα (CytoLab) (human, UniProt P01375 partial chain)
T1 construct: coated on the ELISA plate at 1 µg/ml; also called Tumour necrosis factor alpha
Assay: ELISA on coated human TNFα

T1 sequence (P01375 77-233 limits assumed): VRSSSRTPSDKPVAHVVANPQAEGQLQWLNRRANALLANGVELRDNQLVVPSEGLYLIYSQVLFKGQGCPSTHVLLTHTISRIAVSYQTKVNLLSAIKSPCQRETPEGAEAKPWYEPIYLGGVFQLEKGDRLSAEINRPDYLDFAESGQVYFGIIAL

- A450 (AU): 0.885 AU
B1: TNFα dAb Fc variant Q37L (Fc fusion, name in Kabat numbering)
chain: DIQMTQSPSSLSASVGDRVTITCRASQAIDSYLHWYLQKPGKAPKLLIYSASNLETGVPSRFSGSGSGTDFTLTISSLLPEDFATYYCQQVVWRPFTFGQGTKVEIKRV[human IgG1 Fc with changes left out]

- A450 (AU): 0.395 AU
B2: TNFα dAb Fc variant R61Q (Fc fusion, name in Kabat numbering)
chain: DIQMTQSPSSLSASVGDRVTITCRASQAIDSYLHWYQQKPGKAPKLLIYSASNLETGVPSQFSGSGSGTDFTLTISSLLPEDFATYYCQQVVWRPFTFGQGTKVEIKRV[human IgG1 Fc with changes left out]

- A450 (AU): 0.741 AU
B3: TNFα dAb Fc variant P80D (Fc fusion, name in Kabat numbering)
chain: DIQMTQSPSSLSASVGDRVTITCRASQAIDSYLHWYQQKPGKAPKLLIYSASNLETGVPSRFSGSGSGTDFTLTISSLLDEDFATYYCQQVVWRPFTFGQGTKVEIKRV[human IgG1 Fc with changes left out]

- A450 (AU): 0.91 AU
B4: TNFα dAb Fc variant P80S (Fc fusion, name in Kabat numbering)
chain: DIQMTQSPSSLSASVGDRVTITCRASQAIDSYLHWYQQKPGKAPKLLIYSASNLETGVPSRFSGSGSGTDFTLTISSLLSEDFATYYCQQVVWRPFTFGQGTKVEIKRV[human IgG1 Fc with changes left out]

- A450 (AU): 0.8 AU
B5: TNFα dAb Fc variant S77K (Fc fusion, name in Kabat numbering)
chain: DIQMTQSPSSLSASVGDRVTITCRASQAIDSYLHWYQQKPGKAPKLLIYSASNLETGVPSRFSGSGSGTDFTLTISKLLPEDFATYYCQQVVWRPFTFGQGTKVEIKRV[human IgG1 Fc with changes left out]

- A450 (AU): 0.819 AU
B6: TNFα dAb Fc variant S67K (Fc fusion, name in Kabat numbering)
chain: DIQMTQSPSSLSASVGDRVTITCRASQAIDSYLHWYQQKPGKAPKLLIYSASNLETGVPSRFSGSGKGTDFTLTISSLLPEDFATYYCQQVVWRPFTFGQGTKVEIKRV[human IgG1 Fc with changes left out]

- A450 (AU): 0.156 AU
B7: TNFα dAb Fc variant Q38P (Fc fusion, name in Kabat numbering)
chain: DIQMTQSPSSLSASVGDRVTITCRASQAIDSYLHWYQPKPGKAPKLLIYSASNLETGVPSRFSGSGSGTDFTLTISSLLPEDFATYYCQQVVWRPFTFGQGTKVEIKRV[human IgG1 Fc with changes left out]

- A450 (AU): 0.782 AU
B8: TNFα dAb Fc variant P80K (Fc fusion, name in Kabat numbering)
chain: DIQMTQSPSSLSASVGDRVTITCRASQAIDSYLHWYQQKPGKAPKLLIYSASNLETGVPSRFSGSGSGTDFTLTISSLLKEDFATYYCQQVVWRPFTFGQGTKVEIKRV[human IgG1 Fc with changes left out]

- A450 (AU): 0.897 AU
B9: TNFα dAb Fc variant S63A (Fc fusion, name in Kabat numbering)
chain: DIQMTQSPSSLSASVGDRVTITCRASQAIDSYLHWYQQKPGKAPKLLIYSASNLETGVPSRFAGSGSGTDFTLTISSLLPEDFATYYCQQVVWRPFTFGQGTKVEIKRV[human IgG1 Fc with changes left out]

- A450 (AU): 0.419 AU
B10: TNFα dAb Fc variant S67Q (Fc fusion, name in Kabat numbering)
chain: DIQMTQSPSSLSASVGDRVTITCRASQAIDSYLHWYQQKPGKAPKLLIYSASNLETGVPSRFSGSGQGTDFTLTISSLLPEDFATYYCQQVVWRPFTFGQGTKVEIKRV[human IgG1 Fc with changes left out]

- A450 (AU): 0.187 AU
B11: TNFα dAb Fc variant P44K (Fc fusion, name in Kabat numbering)
chain: DIQMTQSPSSLSASVGDRVTITCRASQAIDSYLHWYQQKPGKAKKLLIYSASNLETGVPSRFSGSGSGTDFTLTISSLLPEDFATYYCQQVVWRPFTFGQGTKVEIKRV[human IgG1 Fc with changes left out]

- A450 (AU): 0.723 AU
B12: TNFα dAb Fc variant S77Q (Fc fusion, name in Kabat numbering)
chain: DIQMTQSPSSLSASVGDRVTITCRASQAIDSYLHWYQQKPGKAPKLLIYSASNLETGVPSRFSGSGSGTDFTLTISQLLPEDFATYYCQQVVWRPFTFGQGTKVEIKRV[human IgG1 Fc with changes left out]

- A450 (AU): 0.178 AU
B13: TNFα dAb Fc variant Q38D (Fc fusion, name in Kabat numbering)
chain: DIQMTQSPSSLSASVGDRVTITCRASQAIDSYLHWYQDKPGKAPKLLIYSASNLETGVPSRFSGSGSGTDFTLTISSLLPEDFATYYCQQVVWRPFTFGQGTKVEIKRV[human IgG1 Fc with changes left out]

- A450 (AU): 0.97 AU
B14: TNFα dAb Fc variant S76A (Fc fusion, name in Kabat numbering)
chain: DIQMTQSPSSLSASVGDRVTITCRASQAIDSYLHWYQQKPGKAPKLLIYSASNLETGVPSRFSGSGSGTDFTLTIASLLPEDFATYYCQQVVWRPFTFGQGTKVEIKRV[human IgG1 Fc with changes left out]

- A450 (AU): 0.774 AU
B15: TNFα dAb Fc variant S63H (Fc fusion, name in Kabat numbering)
chain: DIQMTQSPSSLSASVGDRVTITCRASQAIDSYLHWYQQKPGKAPKLLIYSASNLETGVPSRFHGSGSGTDFTLTISSLLPEDFATYYCQQVVWRPFTFGQGTKVEIKRV[human IgG1 Fc with changes left out]

- A450 (AU): 0.925 AU
B16: TNFα dAb Fc variant S77A (Fc fusion, name in Kabat numbering)
chain: DIQMTQSPSSLSASVGDRVTITCRASQAIDSYLHWYQQKPGKAPKLLIYSASNLETGVPSRFSGSGSGTDFTLTISALLPEDFATYYCQQVVWRPFTFGQGTKVEIKRV[human IgG1 Fc with changes left out]

- A450 (AU): 0.903 AU
B17: TNFα dAb Fc variant S65A (Fc fusion, name in Kabat numbering)
chain: DIQMTQSPSSLSASVGDRVTITCRASQAIDSYLHWYQQKPGKAPKLLIYSASNLETGVPSRFSGAGSGTDFTLTISSLLPEDFATYYCQQVVWRPFTFGQGTKVEIKRV[human IgG1 Fc with changes left out]

- A450 (AU): 0.472 AU
B18: TNFα dAb Fc variant S76P (Fc fusion, name in Kabat numbering)
chain: DIQMTQSPSSLSASVGDRVTITCRASQAIDSYLHWYQQKPGKAPKLLIYSASNLETGVPSRFSGSGSGTDFTLTIPSLLPEDFATYYCQQVVWRPFTFGQGTKVEIKRV[human IgG1 Fc with changes left out]

- A450 (AU): 0.794 AU
B19: TNFα dAb Fc variant P80L (Fc fusion, name in Kabat numbering)
chain: DIQMTQSPSSLSASVGDRVTITCRASQAIDSYLHWYQQKPGKAPKLLIYSASNLETGVPSRFSGSGSGTDFTLTISSLLLEDFATYYCQQVVWRPFTFGQGTKVEIKRV[human IgG1 Fc with changes left out]

- A450 (AU): 0.797 AU
B20: TNFα dAb Fc variant S76Y (Fc fusion, name in Kabat numbering)
chain: DIQMTQSPSSLSASVGDRVTITCRASQAIDSYLHWYQQKPGKAPKLLIYSASNLETGVPSRFSGSGSGTDFTLTIYSLLPEDFATYYCQQVVWRPFTFGQGTKVEIKRV[human IgG1 Fc with changes left out]

- A450 (AU): 0.758 AU
B21: TNFα dAb Fc variant S76D (Fc fusion, name in Kabat numbering)
chain: DIQMTQSPSSLSASVGDRVTITCRASQAIDSYLHWYQQKPGKAPKLLIYSASNLETGVPSRFSGSGSGTDFTLTIDSLLPEDFATYYCQQVVWRPFTFGQGTKVEIKRV[human IgG1 Fc with changes left out]

- A450 (AU): 0.294 AU
B22: TNFα dAb Fc variant Q37P (Fc fusion, name in Kabat numbering)
chain: DIQMTQSPSSLSASVGDRVTITCRASQAIDSYLHWYPQKPGKAPKLLIYSASNLETGVPSRFSGSGSGTDFTLTISSLLPEDFATYYCQQVVWRPFTFGQGTKVEIKRV[human IgG1 Fc with changes left out]

- A450 (AU): 0.761 AU
B23: TNFα dAb Fc variant S76Q (Fc fusion, name in Kabat numbering)
chain: DIQMTQSPSSLSASVGDRVTITCRASQAIDSYLHWYQQKPGKAPKLLIYSASNLETGVPSRFSGSGSGTDFTLTIQSLLPEDFATYYCQQVVWRPFTFGQGTKVEIKRV[human IgG1 Fc with changes left out]

- A450 (AU): 0.852 AU
B24: TNFα dAb Fc variant S77Y (Fc fusion, name in Kabat numbering)
chain: DIQMTQSPSSLSASVGDRVTITCRASQAIDSYLHWYQQKPGKAPKLLIYSASNLETGVPSRFSGSGSGTDFTLTISYLLPEDFATYYCQQVVWRPFTFGQGTKVEIKRV[human IgG1 Fc with changes left out]

- A450 (AU): 0.873 AU
B25: TNFα dAb Fc variant S63D (Fc fusion, name in Kabat numbering)
chain: DIQMTQSPSSLSASVGDRVTITCRASQAIDSYLHWYQQKPGKAPKLLIYSASNLETGVPSRFDGSGSGTDFTLTISSLLPEDFATYYCQQVVWRPFTFGQGTKVEIKRV[human IgG1 Fc with changes left out]

- A450 (AU): 0.768 AU
B26: TNFα dAb Fc variant R61S (Fc fusion, name in Kabat numbering)
chain: DIQMTQSPSSLSASVGDRVTITCRASQAIDSYLHWYQQKPGKAPKLLIYSASNLETGVPSSFSGSGSGTDFTLTISSLLPEDFATYYCQQVVWRPFTFGQGTKVEIKRV[human IgG1 Fc with changes left out]

- A450 (AU): 0.889 AU
B27: TNFα dAb Fc variant S65Q (Fc fusion, name in Kabat numbering)
chain: DIQMTQSPSSLSASVGDRVTITCRASQAIDSYLHWYQQKPGKAPKLLIYSASNLETGVPSRFSGQGSGTDFTLTISSLLPEDFATYYCQQVVWRPFTFGQGTKVEIKRV[human IgG1 Fc with changes left out]

- A450 (AU): 0.182 AU
B28: TNFα dAb Fc variant P44Q (Fc fusion, name in Kabat numbering)
chain: DIQMTQSPSSLSASVGDRVTITCRASQAIDSYLHWYQQKPGKAQKLLIYSASNLETGVPSRFSGSGSGTDFTLTISSLLPEDFATYYCQQVVWRPFTFGQGTKVEIKRV[human IgG1 Fc with changes left out]

- A450 (AU): 0.549 AU
B29: TNFα dAb Fc variant Q37Y (Fc fusion, name in Kabat numbering)
chain: DIQMTQSPSSLSASVGDRVTITCRASQAIDSYLHWYYQKPGKAPKLLIYSASNLETGVPSRFSGSGSGTDFTLTISSLLPEDFATYYCQQVVWRPFTFGQGTKVEIKRV[human IgG1 Fc with changes left out]

- A450 (AU): 0.999 AU
B30: TNFα dAb Fc variant S67H (Fc fusion, name in Kabat numbering)
chain: DIQMTQSPSSLSASVGDRVTITCRASQAIDSYLHWYQQKPGKAPKLLIYSASNLETGVPSRFSGSGHGTDFTLTISSLLPEDFATYYCQQVVWRPFTFGQGTKVEIKRV[human IgG1 Fc with changes left out]

- A450 (AU): 1.35 AU
B31: TNFα dAb Fc variant S60Y (Fc fusion, name in Kabat numbering)
chain: DIQMTQSPSSLSASVGDRVTITCRASQAIDSYLHWYQQKPGKAPKLLIYSASNLETGVPYRFSGSGSGTDFTLTISSLLPEDFATYYCQQVVWRPFTFGQGTKVEIKRV[human IgG1 Fc with changes left out]
